# In all, about 45,000 compounds went through this assay and about 200 (0.44%) were called active. Another 7% or so got no clear call; they are omitted. Calls follow the shape of the dose curve; as a rule, active = well fitted activation curve with a large enough effect; inconclusive = small, poorly fitted or top-dose-only effect; inactive = no such curve, though single readings can be large or run the other way. Some of the results follow.
# Experiment: qHTS of TDP-43 Inhibitors: NCGC Sytravon Library Screen; also: 0% is about no effect; nearly all actives have a fitted effect of over 55% in size
# Conditions: yeast TDP-43 toxicity rescue, BacTiter-Glo growth, 24 h; series mostly up to 46.1 µM; growth rescue (activation): at the top concentration
# Procedure, shortened: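 TDP-43-expressing yeast, pregrown in raffinose, seeded at OD600 0.02 in galactose medium with compound for 24 hr at 30 deg C. Growth read by BacTiter-Glo luminescence, so rescue of toxicity appears as activation.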
row,Structure (SMILES),growth rescue (activation)
1,CCNC(=O)C1(C)CCN(C(=O)c2c(F)cccc2F)C1 (stereo not given),inactive: -1.56%
2,COc1ccc(OCC(=O)Nc2ccc(S(=O)(=O)Nc3nc(C)cc(C)n3)cc2)cc1,inactive: -5.08%
3,Cc1cc(C(=O)CN2C(=O)C(=O)N(Cc3ccccc3)C2=O)c(C)n1CC1COc2ccccc2O1 (stereo not given),inactive: -6.27%
4,COc1ccc(-c2cncc3nccn23)cc1OC,inactive: 13.7%
5,O=C(c1cc(-c2cccc(Cl)c2)on1)N1CCN(c2ccc(F)cc2)CC1,inactive: -0.0039%
6,Cc1ccc(-c2nnn(CC(=O)N(c3ccc(F)cc3)C(C(=O)NC3CCCC3)c3ccncc3)n2)o1 (stereo not given),inactive: -13.3%
7,CN(C)c1cccc(CNC(=O)c2ccc3sc([C@@H]4O[C@H](CO)[C@H](O)[C@H](O)[C@H]4O)nc3c2)c1,inactive: -0.0311%
8,CC(C)OC(=O)c1cc(NC(=O)C2C3C=CC(O3)C2C(=O)O)cc(C(=O)OC(C)C)c1 (stereo not given),inactive: -12.4%
9,Cc1ccc(CNC(=O)CSc2nnc3c(n2)[nH]c2ccccc23)cc1,inactive: 3.74%
10,CC(=O)c1sc(N/N=C\c2ccccc2O)nc1C,inactive: 6.21%
11,COc1ccc(-c2nsc3c(SCc4ccccc4)ncnc23)cc1,inactive: 15.4%
12,CC(NC(=O)CSc1nc2ccccc2c(=O)[nH]1)c1ccccc1 (stereo not given),inactive: 3.36%
13,COc1cccc(OC)c1C(=O)Nc1ccc(C(=O)NCc2ccccc2)cc1,inactive: 5.68%
14,CCN(CC)S(=O)(=O)c1ccc(C)c(NC(=O)c2cc(C)oc2C)c1,inactive: 8.9%
15,CC1CCCC(C)N1C(=O)COC(=O)c1ccc(Br)o1 (stereo not given),inactive: 7.67%
16,COc1ccc(/C=C(/NC(=O)c2ccc(C)cc2)C(=O)N2CCCC2)cc1OC,inactive: 9.13%
17,CCOC(=O)C1CCCN(C(=O)COC(=O)c2cccs2)C1 (stereo not given),inactive: 8.55%
18,O=C(Cn1cnc([N+](=O)[O-])c1)NCCc1ccccc1,inactive: -7.3%
19,O=C(O)CCCC(=O)NNC(=O)c1cccc(Br)c1,inactive: 7.46%
20,COc1ccc(Cc2nnc(NS(=O)(=O)c3ccccc3)s2)cc1,inactive: -3.82%
21,NS(=O)(=O)c1ccc2nc(NC(=O)Nc3ccccc3F)sc2c1,inactive: -32.2%
22,COc1cccc(CNC(=O)CN(C)S(=O)(=O)c2ccc(Br)s2)c1,inactive: 17%
23,O=C(CSc1nc2cc(S(=O)(=O)N3CCOCC3)ccc2o1)Nc1c(F)cccc1F,inactive: -1.43%
24,Cn1c(=O)cc(Cl)[nH]c1=O,inactive: -12.8%

row,Structure (SMILES),growth rescue (activation)
1,Cc1c(C(=O)N/N=C/c2cccs2)nc2ccccn12,inactive: 20.2%
2,CCC(CC)C(=O)N(C)c1c(C)nc2c(OCCOc3ccc(F)cc3)cccn12,inactive: 7.22%
3,Cc1cc(N)n2nc(C(F)(F)F)nc2n1,inactive: -1.51%
4,O=C(O)C12CC3CC(C1)CC(n1ncc(NCc4ccccc4)c(Cl)c1=O)(C3)C2,inactive: 3.19%
5,Cc1ccc2cccc(OCC(=O)Nc3ccc(N4CCOCC4)cc3)c2n1,inactive: -13.3%
6,CC1CCN(C(=O)C(C)NCc2ccc(F)cc2)CC1 (stereo not given),inactive: -4.59%
7,Cc1ccc(NC(=S)NC(=O)/C=C/c2ccco2)c(O)c1,inactive: 5.85%
8,NC(c1ccccc1)c1csc(NC(=O)Nc2ccc(OC(F)(F)F)cc2)n1 (stereo not given),inactive: 17.4%
9,O=C(NCCc1ccccc1)C1CCC(CNS(=O)(=O)c2cccs2)CC1 (stereo not given),inactive: 12.3%
10,COc1ccc(N2CCN(C(=O)CNS(=O)(=O)c3ccc(Br)s3)CC2)cc1,inactive: 24.1%
11,CCC(=O)Nc1ccc(C(=O)n2ccc(C)n2)cc1,inactive: 26.9%
12,Cc1cc(NC(=O)CN2C(=O)NC3(CCC(C)CC3)C2=O)no1 (stereo not given),inactive: 1.97%
13,Cc1c(NC(=S)N2CCN(c3cccc(Cl)c3)CC2)c(=O)n(-c2ccccc2)n1C,inactive: -1.68%
14,Cc1ccccc1Nc1nc(N)nc(COC(=O)[C@@H](NC(=O)c2ccco2)C(C)C)n1,inactive: 4.66%
15,CCOC(=O)C1=C(C)NC(=O)NC1c1ccc(OCC(=O)N2CCCCC2)cc1 (stereo not given),inactive: 13.4%
16,Cn1c(=O)c2cc(NC(=O)CCc3ccccc3)ccc2n1-c1ccccc1F,inactive: 5.43%
17,Cc1nc2nc(SCc3nc4ccccc4[nH]3)[nH]c2cc1Br,inactive: -6.88%
18,Nc1cc(Cl)ccc1C(=O)OCC(=O)NCC1CCCO1 (stereo not given),inactive: -6.74%
19,CCCCCCCC(=O)Oc1ccc(C(=O)Nc2cc(C)on2)cc1,inactive: -1.33%
20,COC(=O)N/N=C1\CCCc2c(C)cc(C)cc21,inactive: 14.6%
21,COc1ccc(-n2c(SCC(=O)N3CCC(C(=O)O)CC3)nc3ccccc3c2=O)cc1OC,inactive: -21.4%
22,O=C(O)c1cccc(N/N=C/c2cccc3ccccc23)c1,inactive: 15.2%
23,O=C(Nc1ccc(N2CCOCC2)cc1)Nc1ccc2nsnc2c1,inactive: -16%
24,O=C(CN(C(=O)c1ccccc1)N1C(=O)CCC1=O)c1cccs1,inactive: 8.17%

row,Structure (SMILES),growth rescue (activation)
1,CC1CCN(C(=O)COC(=O)c2cc3ccccc3oc2=O)CC1,inactive: -6.09%
2,O=C(CCCN1C(=O)C2CC=CCC2C1=O)Nc1cccc(F)c1 (stereo not given),inactive: 9.92%
3,CCCCC(=O)Nc1ccccc1N1CCOCC1,inactive: -6.3%
4,O=C(OCc1c(F)cccc1Cl)c1cnc(Cl)c(Cl)c1,inactive: 10.1%
5,Cn1nnnc1SCC(=O)C(C)(C)C,inactive: 4.18%
6,Cn1c(SCc2ccccn2)nnc1-c1ccccc1,inactive: 11.8%
7,COc1ccc(NC(=O)c2cccc3c(-c4ccc(OC)cc4C)coc23)cc1,inactive: 26%
8,CCOc1ccccc1CNC(=O)c1oc2ccc3c(c2c1C)C(=O)CC(C)(C)O3,inactive: 14.4%
9,CC(C)COCc1ccc(O)c2ncccc12,inactive: 14.8%
10,Cc1cccc(OCC(=O)N/N=C/c2ccc(N(C)C)cc2)c1,inactive: 7%
11,Cc1cccc(CC2S/C(=N/c3cccc(C)n3)NC2=O)c1 (stereo not given),inactive: -1.14%
12,CC(=O)c1cccc(CN2CCCC(C(=O)c3ccc4c(c3)OCO4)C2)c1 (stereo not given),inactive: 2.96%
13,NS(=O)(=O)c1ccc(CCNC(=O)c2ccc(OCC3CCCO3)cc2)cc1 (stereo not given),inactive: -0.814%
14,CCOC(=O)C1(Cc2cccc(OC)c2)CCN(Cc2csc(C(C)=O)c2)CC1,inactive: -6.69%
15,Cc1ccnc(NC(=O)c2cccc(OC(F)F)c2)n1,inactive: -7.01%
16,O=C(Cc1ccccc1)Nc1ccc(N2CCOCC2)cc1,inactive: -7.18%
17,CCc1nc2c(OCc3ccc(C(=O)OC)cc3)cccn2c1N(C)C(=O)c1ccc(OC)cc1,inactive: -6.07%
18,O=C(NC1CCCC1)C(c1ccncc1)N(C(=O)Cc1cccs1)c1cccc(F)c1 (stereo not given),inactive: 4.13%
19,O=C(Nc1ccc(OCCO)cc1)c1csc([C@@H]2C[C@H](O)[C@@H](CO)O2)n1,inactive: 4.28%
20,O=C(Nc1ccc2c(c1)CCC2)c1c(F)cccc1Cl,inactive: 7.77%
21,COC(=O)CCCCCCCCC(O)CN1CCCCC1 (stereo not given),inactive: 5.71%
22,O=C(O)c1ccc2c(c1)C(=O)N(CCCCCCCN1C(=O)c3ccc(C(=O)O)cc3C1=O)C2=O,inactive: 8.05%

# Source: PubChem BioAssay AID1347073 (National Center for Advancing Translational Sciences (NCATS), 2019)
